# Laboratory results as given in PubChem BioAssay AID504706 (National Center for Advancing Translational Sciences (NCATS), 2011).
# Among all 320,000 compounds or so, about 200 (0.062%) were called active. The shares of active, inactive and inconclusive entries below differ from those in the screen. Calls follow the shape of the dose curve; as a rule, active = well fitted activation curve with a large enough effect; inconclusive = small, poorly fitted or top-dose-only effect; inactive = no such curve, though single readings can be large or run the other way. No potency is given beside an inconclusive call; the fits are too rough.
# Assay: qHTS assay for re-activators of p53 using a Luc reporter; also: nearly all actives have a fitted effect of over 45% in size; as to activity change, positive = activation: % of control where 0% means no effect
# Conditions: H1299 p53-A138V BP100-luciferase reporter, luminescence, 24 h; series mostly up to 92.2 µM; activity change, positive = activation: at the top concentration
# Method in brief: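 p53-null H1299 cells stably carrying temperature-sensitive p53-A138V and a BP100-luciferase reporter were pinned with compounds (4-point, 1:5 series) and held 24 hrs at 37 deg C. Luminescence was read 10 min after detection reagent.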
# Potency is read from the fitted curve at half-maximal effect; tags tell the direction and shape of the fitted curve.
Structure (SMILES),Potency,"activity change, positive = activation"
COc1cc(Br)cc(/C=C/c2ccc3cccc(O)c3n2)c1O,"inconclusive [activator, partial curve, poor fit]",–
O=C(Cc1ccccc1)Nc1ccc(C(=O)O)cc1,"inconclusive [activator, partial curve, poor fit]",–
Cc1cc(NC(=O)CCc2ccccc2)c([N+](=O)[O-])cc1C,"inconclusive [activator, full curve, poor fit]",–
CCCN1Cc2cccc(C(N)=O)c2C1=O,"inconclusive [activator, single point]",–
O=[N+]([O-])c1ccc(NC(=S)NCCc2ccc(F)cc2)cc1,"inconclusive [activator, partial curve, poor fit]",–
Cc1ccc(NC(=O)c2ccc3c(=O)n4c(nc3c2)CCC4)cc1F,"inconclusive [activator, full curve, poor fit]",–
O=C(c1ccco1)N1CCN(c2ncnc3c(-c4ccccc4)nsc23)CC1,"inconclusive [activator, partial curve, poor fit]",–
CC(C)N(Cc1ccccc1)C(=O)Cn1c(=O)cnc2ccccc21,–,inactive: 0.527%
CN(C)c1nc(-c2ccccc2)cc(C(F)(F)F)c1C#N,–,inactive: -0.962%
CC(=O)c1cc(CC(=O)N2CCc3c([nH]c4ccccc34)C2c2ccccn2)cs1 (stereo unspecified),–,inactive: -1.53%
Cc1nc2nc(C)c(CCC(=O)N3CCN(c4ccccn4)CC3)c(C)n2n1,"inconclusive [activator, partial curve, poor fit]",–
Cc1ccc(NC(=O)c2ccnc(C(C)(C)C)c2)cc1,"inconclusive [activator, partial curve, poor fit]",–
O=C(NC(=S)Nc1ncccn1)c1ccc(F)cc1,"inconclusive [activator, full curve, poor fit]",–
O=C(N/N=C/c1cn(-c2cccs2)nc1-c1ccccc1)c1ccccc1Cl,"inconclusive [activator, partial curve, poor fit]",–
Cc1cccc(C(=O)Nc2sc3c(c2C(=O)O)CCCC3)c1,"inconclusive [activator, full curve, poor fit]",–
COc1cc(Br)cc(/C=N/NC(=O)Cc2ccc(C(F)(F)F)cc2[N+](=O)[O-])c1O,"inconclusive [activator, single point]",–
O=C(NCC(=O)N1CCCC1)c1ccc(Br)cc1,"inconclusive [activator, single point]",–
CCOc1ccc(OCC)c(NC(=O)CSc2nc3c(c(=O)n(C)c(=O)n3C)n2C(C)C)c1,–,inactive: 6.31%
CCCc1cc2c(=O)c(-c3ccccn3)c(C)oc2cc1O,–,inactive: -0.756%
CC(=O)Nc1ccccc1C(=O)C(=O)Nc1ccc(F)c(Cl)c1,–,inactive: 20%
CC(C)CCn1c(N2CCN(Cc3ccccc3)CC2)nc2c1c(=O)[nH]c(=O)n2C,–,inactive: -7.05%
CNS(=O)(=O)c1ccc(NC(=O)c2ccc(Cl)cc2Cl)cc1,–,inactive: -9.83%
Cc1ccc(C)c(/C(O)=C2/C(=O)C(=O)N(CCN3CCOCC3)C2c2ccc(C)o2)c1 (stereo unspecified),"inconclusive [activator, single point]",–

Structure (SMILES),Potency,"activity change, positive = activation"
CCOc1ncccc1C(=O)Nc1nc(SC)ns1,"inconclusive [activator, full curve, poor fit]",–
CC(C)N(C(=O)COC(=O)c1cc(Cl)cc(Cl)c1N)C(C)C,–,inactive: -3.02%
CC1CCCCN1CCn1c(=S)[nH]c2cc3c(cc2c1=O)OCO3 (stereo unspecified),–,inactive: 4.71%
CCCCn1c(=O)[nH]c(=O)c2c1nc(-c1ccncc1)n2CCOC,"inconclusive [activator, full curve, poor fit]",–
Cc1ccccc1C(=O)c1cccn1CC(=O)NCCN1CCN(c2cccc(C)c2C)CC1,–,inactive: -6.61%
CCCCSc1nnc(-c2ccc(C)cc2)o1,"inconclusive [activator, partial curve, poor fit]",–
COC(=O)C1CCN(C(=O)/C=C/c2ccccc2)CC1,"inconclusive [activator, partial curve, poor fit]",–
Cc1ccc(/C(C#N)=C\c2ccc(N3CCOCC3)o2)cc1,–,inactive: -21.5%
N/C(CCS(=O)(=O)c1ccc(Cl)cc1)=N\OC(=O)c1ccccc1C(F)(F)F,"inconclusive [activator, single point]",–
O=C(N/N=C/c1cccc2ccccc12)c1cccs1,"inconclusive [activator, full curve, poor fit]",–
CC(C)Cc1c(O)nc(SCC(=O)Nc2ccc3c(c2)CCC3)[nH]c1=O,–,inactive: -4.05%
Cn1nc(-c2ccc(N3CCN(CCO)CC3)c([N+](=O)[O-])c2)c2ccccc2c1=O,–,inactive: -4.57%
c1ccc(Nc2nnc(-c3cccc4ccccc34)o2)cc1,–,inactive: 17%
O=C(O)c1coc2ccccc12,–,inactive: -5.58%
COc1cccc(NC(=S)N2c3ccccc3CC2C)c1 (stereo unspecified),–,inactive: -4.53%
CC(C)CN(C(=O)COC(=O)c1ccc(Br)cc1)c1c(N)n(Cc2ccccc2)c(=O)[nH]c1=O,–,inactive: -9.78%
Cc1ccc2nc(-c3sc4nc(C)cc(C)c4c3N)[nH]c2c1,"inconclusive [activator, full curve, poor fit]",–
COc1ccc(OC)c(C2C(C(=O)c3cccs3)=C(O)C(=O)N2c2cc(C)on2)c1 (stereo unspecified),"inconclusive [activator, partial curve, poor fit]",–
Cc1cccc(N2CCN(C(=O)C3CCN(S(=O)(=O)c4cccc5nsnc45)CC3)CC2C)c1 (stereo unspecified),–,inactive: -11.8%
CCOC(=O)C1CN(S(=O)(=O)c2ccc(OC)cc2)c2ccccc2O1 (stereo unspecified),–,inactive: 3.75%
COc1ccc(-c2nn(-c3ccccc3)cc2C=O)cc1[N+](=O)[O-],"inconclusive [activator, single point]",–
COc1ccc(COc2ccc3ccc(=O)oc3c2)cc1,"inconclusive [activator, partial curve, poor fit]",–
CN(C)c1nccc(N(Cc2ccccc2)Cc2ccccc2)c1C#N,"inconclusive [activator, partial curve, poor fit]",–
